Test results taken from article PMC12631116.
These are yes or no findings as the source states them, for the method shown. In cells and extracts the contact can be indirect. Some binding calls cover weakened binding; strength is not graded here.

Sequences of proteins named here, by UniProt entry; tags and fusion partners are left off. A change or cut given only in a name is not applied to a line headed by its entry. Residues count along the entry.
UniProt P43268: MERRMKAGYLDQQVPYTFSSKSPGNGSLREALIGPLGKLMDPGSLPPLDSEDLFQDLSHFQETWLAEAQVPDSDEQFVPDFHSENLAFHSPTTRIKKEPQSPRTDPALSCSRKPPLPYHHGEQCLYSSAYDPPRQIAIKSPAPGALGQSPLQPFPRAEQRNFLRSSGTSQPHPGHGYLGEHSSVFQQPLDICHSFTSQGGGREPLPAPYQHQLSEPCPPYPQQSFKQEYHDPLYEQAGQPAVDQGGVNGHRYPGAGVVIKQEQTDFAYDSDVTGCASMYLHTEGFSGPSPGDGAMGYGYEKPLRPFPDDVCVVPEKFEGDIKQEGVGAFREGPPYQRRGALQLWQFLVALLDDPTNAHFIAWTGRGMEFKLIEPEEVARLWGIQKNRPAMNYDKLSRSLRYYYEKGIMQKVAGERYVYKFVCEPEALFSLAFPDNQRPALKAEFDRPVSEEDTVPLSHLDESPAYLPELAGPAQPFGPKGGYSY
GST-ETV4-P1(1-339AA) fusion protein: residues 1-339 of P43268
Flag-ETV4-P2(278-484): residues 278-484 of P43268
Flag-ETV4-P3(340-484): residues 340-484 of P43268
UniProt Q9Y4K0, residues 26-774: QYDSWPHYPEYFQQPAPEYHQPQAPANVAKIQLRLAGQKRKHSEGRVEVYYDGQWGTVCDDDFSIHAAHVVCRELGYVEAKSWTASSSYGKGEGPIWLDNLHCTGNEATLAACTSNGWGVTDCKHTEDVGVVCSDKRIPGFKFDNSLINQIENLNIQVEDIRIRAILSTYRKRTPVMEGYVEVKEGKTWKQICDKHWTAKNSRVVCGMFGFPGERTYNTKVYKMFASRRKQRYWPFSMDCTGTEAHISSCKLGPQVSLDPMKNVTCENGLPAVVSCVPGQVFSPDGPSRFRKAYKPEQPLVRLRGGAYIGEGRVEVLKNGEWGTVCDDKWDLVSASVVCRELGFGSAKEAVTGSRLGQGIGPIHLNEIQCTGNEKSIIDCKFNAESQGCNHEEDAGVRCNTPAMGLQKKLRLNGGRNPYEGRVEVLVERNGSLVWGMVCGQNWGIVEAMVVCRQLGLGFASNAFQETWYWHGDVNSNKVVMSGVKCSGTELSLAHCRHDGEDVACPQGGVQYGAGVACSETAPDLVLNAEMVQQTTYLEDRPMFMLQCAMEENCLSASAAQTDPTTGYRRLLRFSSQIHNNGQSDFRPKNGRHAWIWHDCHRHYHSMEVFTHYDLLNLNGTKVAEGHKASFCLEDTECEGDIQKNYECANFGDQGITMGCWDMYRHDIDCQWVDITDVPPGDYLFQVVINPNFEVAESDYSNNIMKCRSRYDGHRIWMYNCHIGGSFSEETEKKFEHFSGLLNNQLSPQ

Columns and labels:
[1] = target: Flag-ETV4 (ETS variant 4) (UniProt P43268); assay: co-IP; 293Ta cells co-transfected with Flag-ETV4 (or deletion mutants) and HA-LOXL2 for 48h; IP lysis buffer; anti-Flag antibody on Protein A/G magnetic beads, overnight at 4 C; normal mouse IgG as control; Western blotting
[2] = target: Flag-ETV4-P1(1-339) (UniProt P43268); assay: as above
[3] = target: Flag-ETV4-P2(278-484) (UniProt P43268); assay: as above
[4] = target: Flag-ETV4-P3(340-484) (UniProt P43268); assay: as above
[5] = target: ETV4 (ETS variant 4) of colorectal cancer cells (human (endogenous in HCT116 and RKO)) (UniProt P43268); assay: proximity ligation; Duolink in situ PLA in HCT116 and RKO cells; either ETV4 or LOXL2 antibody alone as control; confocal microscopy
[6] = target: GST-ETV4 fusion protein (UniProt P43268); assay: pull-down; GST, GST-ETV4 or GST-ETV4-P1 bound to glutathione-Sepharose beads, incubated with whole cell lysate of HCT116-ETV4 cells (RIPA buffer); detected with anti-LOXL2 antibody; only the target purified
[7] = target: GST-ETV4-P1(1-339AA) fusion protein (UniProt P43268); assay: as above

Row | binding [1] | binding [2] | binding [3] | binding [4] | binding [5] | binding [6] | binding [7] | Substance
1 | binds | binds | no binding | no binding |  |  |  | HA-LOXL2 (Lysyl oxidase-like 2) (from UniProt Q9Y4K0 26-774) (enzyme)
2 |  |  |  |  | binds | binds | binds | LOXL2 (Lysyl oxidase-like 2) of colorectal cancer cells (from UniProt Q9Y4K0 26-774) (enzyme)
